The source of these data is the supplement of paper PMC3334620.

Over roughly 33,000 sequences, “E-score (-0.5 to 0.5)” has its median near -0.036; the highest 2% begin near 0.37. This is one part of the list.

The assay concerns the target T1, Yer064c (UniProt P40041).
T1 sequence: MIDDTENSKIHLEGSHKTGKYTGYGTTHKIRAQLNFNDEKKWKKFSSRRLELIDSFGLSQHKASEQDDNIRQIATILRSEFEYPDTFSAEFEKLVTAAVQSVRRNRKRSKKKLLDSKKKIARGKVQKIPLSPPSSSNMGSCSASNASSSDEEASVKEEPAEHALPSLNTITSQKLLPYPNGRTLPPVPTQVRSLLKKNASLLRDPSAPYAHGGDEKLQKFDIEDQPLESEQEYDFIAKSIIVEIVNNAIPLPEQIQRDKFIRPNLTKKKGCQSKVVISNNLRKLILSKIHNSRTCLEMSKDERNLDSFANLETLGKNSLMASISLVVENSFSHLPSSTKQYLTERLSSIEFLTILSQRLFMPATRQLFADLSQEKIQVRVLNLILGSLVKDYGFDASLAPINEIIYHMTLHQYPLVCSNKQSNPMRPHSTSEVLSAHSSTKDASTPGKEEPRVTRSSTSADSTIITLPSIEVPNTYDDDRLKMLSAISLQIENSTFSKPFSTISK
Description: PBM E-score (8-mer binding enrichment) (E-score (-0.5 to 0.5)); higher = stronger / more preferred TF binding; most listed sequences are background and not binding sites. The settings on record: protein concentration: 200 nM; construct: GST-full length. The method, boiled down:
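Masliner-normalised scans of fluorescent anti-GST signal were the basis for scoring. That signal came from GST-tagged yeast transcription factors applied at about 100-200 nM to double-stranded universal all-10-mer Agilent arrays on fresh or once-stripped slides. Each ungapped eight-base word, pooled with its reverse complement, received an E-score from the Universal PBM Analysis Suite.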
With ATACGATG, the “PBM E-score” value was -0.0122.

As to AACAGGGG, the “PBM E-score” value was -0.168.

In the case of GCTTCGCA, the “PBM E-score” value is -0.0264.

For the sequence GAGCGAGC, the “PBM E-score” value was -0.121.

Turning to ACGTATGG, the “PBM E-score” value is -0.127.

For the sequence ACTGTCTA, the “PBM E-score” value worked out at 0.0798.

With ACTTCAAG, the “PBM E-score” value amounted to 0.278.

Turning to ACTCTCAG, the “PBM E-score” value was determined as 0.125.

In the case of GACAAGCC, the “PBM E-score” value was -0.149.

Turning to ACCCTGCT, the “PBM E-score” value is -0.137.

For CGTCGACA, the “PBM E-score” value is -0.125.

As to CATACAAG, the “PBM E-score” value is -0.0146.

As to CCGGAAAC, the “PBM E-score” value was -0.0836.

Turning to GGTCAGAA, the “PBM E-score” value was -0.00031.

With GGAATTAA, the “PBM E-score” value worked out at 0.105.

Take CTCCGAAC: the “PBM E-score” value is -0.156.

As to ATGTGTTG, the “PBM E-score” value turned out to be 0.147.

For CCATGAGC, the “PBM E-score” value is 0.138.

AACCCGCA: the “PBM E-score” value was -0.117.

On to AGGCTTGG, for which the “PBM E-score” value was -0.19.

For GAGTCGAC, the “PBM E-score” value turned out to be 0.366.

AGAAAGTC: the “PBM E-score” value stood at 0.233.

Consider ATAAATCG, for which the “PBM E-score” value is -0.0657.

Consider ACATAGTC, for which the “PBM E-score” value worked out at 0.386.

As for GGTTGCTA, the “PBM E-score” value is -0.155.

For the sequence ACCTGTGC, the “PBM E-score” value is -0.145.

For GTCTTCGA, the “PBM E-score” value was found to be 0.174.

With CGAGTGAG, the “PBM E-score” value is 0.181.

AAGAGTGA: the “PBM E-score” value was determined as 0.232.

On to TCTCCAGA, for which the “PBM E-score” value was -0.0464.

Regarding AGAACACT, the “PBM E-score” value was -0.127.

Turning to GCGTCATA, the “PBM E-score” value came to 0.0743.

As to CTACCAAA, the “PBM E-score” value came to 0.11.

GACAGGGC: the “PBM E-score” value is -0.409.

Take ATAGCGAG: the “PBM E-score” value was -0.0166.

Regarding GACTGGGA, the “PBM E-score” value came out at 0.152.

Consider CTCGTCGC, for which the “PBM E-score” value is -0.15.

Take AGGTCAAA: the “PBM E-score” value came to 0.0677.

With ACTCAGCA, the “PBM E-score” value was 0.2.

For the sequence CTCCCAAC, the “PBM E-score” value is -0.141.

Regarding GTCGGATA, the “PBM E-score” value was found to be 0.0569.

As to ACTATATC, the “PBM E-score” value was 0.132.

Regarding CGAGGCCA, the “PBM E-score” value is -0.296.

As to ATGGAGAG, the “PBM E-score” value was -0.0455.

On to CATAGCTA, for which the “PBM E-score” value was -0.0202.

As for AATCTCCT, the “PBM E-score” value was -0.0556.

AGGCGACG: the “PBM E-score” value is -0.346.

Consider GGGGACCC, for which the “PBM E-score” value is -0.181.

CCCGTGAC: the “PBM E-score” value turned out to be 0.261.

For TCAGTCAA, the “PBM E-score” value was 0.348.

With GATTGCGC, the “PBM E-score” value was found to be 0.172.

For the sequence GGCGACAA, the “PBM E-score” value was -0.153.

ACAGCCAA: the “PBM E-score” value is -0.125.

For the sequence CGCGGAAC, the “PBM E-score” value was -0.0379.

CAGGGCGC: the “PBM E-score” value is -0.0913.

As to AGTGTAAG, the “PBM E-score” value is 0.0105.

As for CCCTAAGG, the “PBM E-score” value is -0.169.

As for ACAAGGGC, the “PBM E-score” value was -0.342.

Regarding AGCGGAGA, the “PBM E-score” value was -0.0941.

With ATTTTGGC, the “PBM E-score” value was -0.0748.

On to ACAGGCCA, for which the “PBM E-score” value was -0.401.

ACTGGTTA: the “PBM E-score” value turned out to be 0.0655.

Consider ACTTTAAC, for which the “PBM E-score” value is -0.0315.

On to CGTCAATC, for which the “PBM E-score” value was 0.17.

CAGTTGTA: the “PBM E-score” value stood at 0.0649.

With ATATCCCA, the “PBM E-score” value is -0.0842.

For the sequence AGAAGTAG, the “PBM E-score” value is -0.144.

On to ACTCAAGG, for which the “PBM E-score” value was 0.29.

Take TACCCCGA: the “PBM E-score” value was -0.0258.

Regarding GTACAAAA, the “PBM E-score” value is 0.192.

CAACGTTC: the “PBM E-score” value is -0.198.

As for ATTTCACC, the “PBM E-score” value was 0.00375.

Consider CTTTCCTA, for which the “PBM E-score” value came out at 0.0796.

For AGGTTGGA, the “PBM E-score” value was -0.114.

Take CTGTTGAA: the “PBM E-score” value was 0.125.

For the sequence ATCGTGTG, the “PBM E-score” value stood at 0.0756.

Turning to CCGTTGAC, the “PBM E-score” value is 0.118.

For the sequence ACCGTCTC, the “PBM E-score” value is -0.0574.

ACACCTAC: the “PBM E-score” value is -0.0818.

With ACCGACCA, the “PBM E-score” value was -0.104.

Consider ATCAAGGA, for which the “PBM E-score” value was found to be 0.126.

AAAGATCA: the “PBM E-score” value was determined as 0.137.

With CCTTTCCC, the “PBM E-score” value is -0.198.

With ATGTAAAA, the “PBM E-score” value was -0.0296.

As to ACGATTGG, the “PBM E-score” value was -0.0358.

Take CCATCTCG: the “PBM E-score” value is -0.0477.

As for CTGGTGTA, the “PBM E-score” value is -0.14.

Consider AGGGAGCG, for which the “PBM E-score” value was -0.142.

For the sequence ATGCCTTC, the “PBM E-score” value was -0.366.

For the sequence AGCGGTTA, the “PBM E-score” value amounted to 0.0202.

On to CATACCGG, for which the “PBM E-score” value is 0.00278.

Take ATATTCAT: the “PBM E-score” value was found to be 0.0747.

Take AAAATCAG: the “PBM E-score” value is 0.15.

On to CTCTTATC, for which the “PBM E-score” value amounted to 0.137.
